# From the supplement of paper PMC12217912
# Some of the results follow. The full chains were built here from the parent and the listed change. Values near 0.05 are background.
# B1: TEV protease; numbered along this chain (parent)
# chain: MGESLFKGPRDYNPISSSICHLTNESDGHTTSLYGIGFGPFIITNKHLFRRNNGTLVVQSLHGVFKVKDTTTLQQHLVDGRDMIIIRMPKDFPPFPQKLKFREPQREERICLVTTNFQTKSMSSMVSDTSCTFPSGDGIFWKHWIQTKDGQCGSPLVSTRDGFIVGIHSASNFTNTNNYFTSVPKNFMELLTNQEAQQWVSGWRLNADSVLWGGHKVFMVKPEEPFQPVKEATQL
# Variants of: B1
# Test: raw area under fraction-flipped curve 0-4 h after induction (AUC4h, not background-subtracted), DNA-recorder readout of cleavage of the substrate (dimensionless); higher = more cleavage of the substrate by the protease variant
# Settings: temperature: 34 °C; time window: 0-4 h after rhamnose induction
# Procedure: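 In vivo DNA recorder in E. coli TOP10(DE3) ΔrhaA at 34 °C. Each TEVp single-site mutant (parent TEVp 0) is paired with a single-site variant of the 7-mer TEVs (canonical ENLYFQ|S). The substrate sits between flexible linkers in a Bxb1-sfGFP-TEVs-SsrA fusion, so cleavage stabilises Bxb1 and speeds flipping of a recombination array, read by NGS. The value is the raw area under the fraction-flipped curve over 0-4 h after rhamnose induction (AUC4h), with ≥20 reads per time point. It is not background-subtracted; inactive controls average about 0.047.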
# 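Further: Bxb1 expression induced with 0.2% (w/v) L-rhamnose at OD600 near 0.5, cultures sampled hourly, flipped fraction per protease–substrate barcode pair counted by paired-end Illumina sequencing.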
Variant,area with substrate ANLYFQS,area with substrate DNLYFQS,area with substrate HNLYFQS,area with substrate INLYFQS,area with substrate KNLYFQS,area with substrate LNLYFQS,area with substrate QNLYFQS,area with substrate RNLYFQS,area with substrate SNLYFQS,area with substrate TNLYFQS,area with substrate VNLYFQS,area with substrate WNLYFQS,area with substrate YNLYFQS,area with substrate GNLYFQS,area with substrate MNLYFQS,area with substrate NNLYFQS,area with substrate PNLYFQS,area with substrate CNLYFQS,area with substrate FNLYFQS
MGESLFKGPRDYNPISSSICHLTNESDGHTTSLYGIGFGPFIITNKHLFRRNNGTLVVQSLHGVFKVKDTTTLQQHLVDGRDMIIIRMPKDFPPFPQKLKFREPQREERICLVTTNFQTKSMSSMVSDTSCTFPSGDGIFWKHWIQTKDGQCGSPLVSTRDGFIVGIHSASNFTNTNNYFTSVGKNFMELLTNQEAQQWVSGWRLNADSVLWGGHKVFMVKPEEPFQPVKEATQL [P184G],0.057,0.0616,0.0681,0.0553,0.0603,0.0701,0.0554,0.0476,0.0544,0.0638,0.059,0.0568,0.0783,–,–,–,–,–,–
MGESLFKGPRDYNPISSSICHLTNESDGHTTSLYGIGFGPFIITNKHLFRRNNGTLVVQSLHGVFKVKDTTTLQQHLVDGRDMIIIRMPKDFPPFPQKLKFREPQREERICLVTTNFQTKSMSSMVSDTSCTFPSGDGIFWKHWIQTKDGQCGSPLVSTRDGFIVGIHSASNFTNTNNYFTSVHKNFMELLTNQEAQQWVSGWRLNADSVLWGGHKVFMVKPEEPFQPVKEATQL [P184H],0.0518,–,0.052,–,0.0288,0.0614,–,–,–,0.0545,–,0.0809,–,0.0312,0.0558,0.0541,0.0701,–,–
MGESLFKGPRDYNPISSSICHLTNESDGHTTSLYGIGFGPFIITNKHLFRRNNGTLVVQSLHGVFKVKDTTTLQQHLVDGRDMIIIRMPKDFPPFPQKLKFREPQREERICLVTTNFQTKSMSSMVSDTSCTFPSGDGIFWKHWIQTKDGQCGSPLVSTRDGFIVGIHSASNFTNTNNYFTSVSKNFMELLTNQEAQQWVSGWRLNADSVLWGGHKVFMVKPEEPFQPVKEATQL [P184S],0.0556,0.0826,0.0547,–,0.0586,–,–,0.0388,0.0589,0.0529,0.0501,0.0553,0.0579,0.057,0.0544,0.0572,0.0514,0.0675,0.0597
MGESLFKGPRDYNPISSSICHLTNESDGHTTSLYGIGFGPFIITNKHLFRRNNGTLVVQSLHGVFKVKDTTTLQQHLVDGRDMIIIRMPKDFPPFPQKLKFREPQREERICLVTTNFQTKSMSSMVSDTSCTFPSGDGIFWKHWIQTKDGQCGSPLVSTRDGFIVGIHSASNFTNTNNYFTSVVKNFMELLTNQEAQQWVSGWRLNADSVLWGGHKVFMVKPEEPFQPVKEATQL [P184V],0.0458,0.0568,0.0566,–,0.0602,0.0515,–,–,–,0.0543,0.0528,0.05,0.0492,0.0603,0.0638,0.0572,0.0516,0.0587,–
MGESLFKGPRDYNPISSSICHLTNESDGHTTSLYGIGFGPFIITNKHLFRRNNGTLVVQSLHGVFKVKDTTTLQQHLVDGRDMIIIRMPKDFPPFPQKLKFREPQREERICLVTTNFQTKSMSSMVSDTSCTFPSGDGIFWKHWIQTKDGQCGSPLVSTRDGFIVGIHSASNFTNTNNYFTSVPKNFMELLENQEAQQWVSGWRLNADSVLWGGHKVFMVKPEEPFQPVKEATQL [T192E],0.0896,–,0.0527,–,–,–,–,–,0.065,0.0854,0.0748,0.056,–,–,0.0668,–,0.0611,0.0676,0.0681
